# The supplement of paper PMC3334620
# The full ranking holds about 33,000 sequences; the median of “E-score (-0.5 to 0.5)” is about -0.04, and the highest 2% start at about 0.36. The list shows a part of the results.
# Target: T1, Hmlalpha2 (UniProt P0CY09)
# T1 sequence: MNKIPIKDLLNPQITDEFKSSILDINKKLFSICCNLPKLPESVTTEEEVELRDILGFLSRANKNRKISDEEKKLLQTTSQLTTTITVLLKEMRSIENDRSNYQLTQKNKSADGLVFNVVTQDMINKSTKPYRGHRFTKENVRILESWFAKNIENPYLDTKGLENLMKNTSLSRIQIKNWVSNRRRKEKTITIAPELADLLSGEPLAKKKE
# Assay: PBM E-score (8-mer binding enrichment) (E-score (-0.5 to 0.5)); higher = stronger / more preferred TF binding; most listed sequences are background and not binding sites
# Settings: protein concentration: 200 nM; construct: GST-full length
# How it was run: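 Yeast transcription factors carrying a GST tag, as full-length proteins or DNA-binding domains, were produced by PURExpress in vitro transcription/translation. About 100-200 nM protein was applied to universal all-10-mer Agilent arrays, double-stranded by primer extension on fresh or once-stripped slides. Bound protein was detected with fluorescent anti-GST, and scans were normalised with masliner. The Universal PBM Analysis Suite gave each ungapped eight-base word, pooled with its reverse complement, an E-score, a modified Wilcoxon-Mann-Whitney statistic.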
row,Sequence,PBM E-score
1,AACTTTGG,-0.0327
2,ATGTTGAG,0.33
3,ACCACATC,0.0419
4,GCAATTCC,-0.143
5,AGCAGTAC,0.0922
6,ACCACGTC,-0.0362
7,CTCTCGTA,0.0261
8,GCACCCCC,-0.216
9,ACCTGACG,-0.213
10,ACCGGGTG,-0.159
11,ACCGTGAT,-0.0701
12,TGGTCACA,-0.0861
13,GGGGAACC,-0.213
14,AGCAACCT,-0.0897
15,CTGACCAA,-0.0338
16,GATTAGCA,0.0131
17,CTGCCTCA,-0.209
18,ATTGACCA,-0.0224
19,TCGCAACA,0.0939
20,CGCTAATA,0.0277
21,GTTAAACA,0.375
22,AGCCCCGC,-0.0401
23,GATGCCCC,-0.404
24,AAGTGGCA,-0.149
25,AAACAAGT,0.207

row,Sequence,PBM E-score
1,CTGGGGCC,-0.423
2,GCAATGGA,-0.0902
3,ACTACCGG,-0.24
4,TCAATTGA,-0.0515
5,GCAAGAAC,0.202
6,CATCGGTC,-0.163
7,CCAGCGCG,-0.0525
8,GCGCCCGC,-0.181
9,GCGATCCC,-0.13
10,AACTGAAA,0.103
11,CCCAAGAC,-0.109
12,CTCTCGCA,-0.236
13,CATCTTCA,-0.191
14,CAGAGATG,0.117
15,CCTGACTC,-0.243
16,GCCCATCA,-0.114
17,AGACCTTC,-0.111
18,GTATCAAC,0.0736
19,CAGGATTA,0.02
20,CGAGCACC,-0.162
21,ACGACGAT,-0.0531
22,CTTGGGCC,-0.304
23,AAATATGG,-0.00812
24,ATCAAGGG,-0.0776
25,ACTGAGAT,-0.0538

row,Sequence,PBM E-score
1,AACTAAAG,0.262
2,AGGGAACA,-0.0232
3,TACGCATA,0.32
4,TATCGAAA,0.0459
5,CTTGTCGC,-0.0405
6,AAACATTA,0.197
7,CCGCTTAG,-0.226
8,CCCACAGG,-0.23
9,CGGCCGGA,-0.205
10,TCTAACCA,0.123
11,CCTACAGC,-0.164
12,GCTCGCAC,-0.273
13,AAGCACGG,-0.0458
14,TGAGGACA,0.0495
15,AAGTCAAA,0.0282
16,AATTTTTG,0.0384
17,CCCTCACG,-0.238
18,AATCGTGG,0.194
19,AAAAGGAG,-0.141
20,GGGTTGAC,-0.145
21,GCATGCCC,-0.0601
22,ATCCAGTA,0.101
23,AGACGACG,-0.129
24,CCCTTGTA,0.328
25,GTGATTTA,0.18

row,Sequence,PBM E-score
1,TAGGCACA,-0.0943
2,CAGAGATC,-0.201
3,TCCGGGAA,-0.0573
4,ATGCCCTC,-0.0805
5,GAGCTCGA,0.0294
6,CTACAGAA,0.0289
7,ATCATCGC,0.00351
8,CCTTTGTC,-0.0263
9,CAGAAATA,0.0979
10,AACGGCAC,-0.112
11,CTCCGAAG,-0.222
12,TATATGAA,0.16
13,GAGGTATA,0.0243
14,ACGATGCA,0.00955
15,ATAGTAGA,-0.0426
16,ACTGTTGA,0.0581
17,AGTATCTG,-0.138
18,AAGTTCCT,-0.102
19,AGTACTAA,0.173
20,AGTCCGTC,-0.103
21,AAGACACG,0.373
22,AGATTCCA,0.0918
23,ATGTTCAA,0.296
24,CGTGGTTA,0.0938
25,CGAAAGCC,-0.236

row,Sequence,PBM E-score
1,CCGCACGG,-0.268
2,CAGGTTGG,-0.0606
3,ACAATGCA,0.258
4,CCGCCTTA,-0.0118
5,ATACCGAA,0.0865
6,AGGATATG,-0.0728
7,ATTCTATG,0.0697
8,TGAACAAA,0.275
9,ATACGGGC,-0.0779
10,CAGTCTGG,-0.176
11,CAACTCAC,0.0622
12,GCAGAATA,-0.0524
13,ACGAGCCC,-0.0622
14,CATCCAAG,-0.159
15,GCTAGTTA,0.0263
16,AAGGGTAG,-0.0858
17,AGCACGAT,0.147
18,CCTTCAAG,0.00645
19,CTTTGCCC,-0.119
20,AGCGCGGA,-0.127
21,ACGCACTA,0.111
22,ATCTATTA,0.133
23,AGACCCCC,-0.0538
24,ATGTATGG,0.181
25,CCCCTGAA,-0.062

row,Sequence,PBM E-score
1,AGGTCGAC,-0.0255
2,AGGCGGCC,-0.381
3,AGACCACC,-0.238
4,ACTTGCAC,0.0364
5,AAGTTCAT,0.0157
6,AGGGAGTA,-0.0411
7,CACGTTGC,0.14
8,GGACCCCC,-0.405
9,GAGCGCGC,-0.225
10,AAACGTAT,0.278
11,AAATGTGG,0.0439
12,GCGCAAAA,0.0241
13,ACCGTAAA,0.237
14,ACTGGCAA,-0.0631
15,GGCCAGAC,-0.105
16,GCGGTTGA,0.117
17,GGATTAAA,0.0541
18,ATTTAGTA,0.185
19,ATGGGGCG,-0.0324
20,TCTGGCCA,0.0476
21,ATCGACGC,0.182
22,CCTTAGCA,-0.0948
23,AGAACTGA,0.114
24,GCGATACC,-0.315
25,ACACTCCT,0.122

row,Sequence,PBM E-score
1,AATGATAA,0.228
2,AATTCCAC,-0.0149
3,TATACGAA,0.124
4,GGCCAACC,-0.156
5,AATAACTG,0.0798
6,GCTCGAGC,0.209
7,ACAGGCTG,0.033
8,ACGGGAAA,-0.0106
9,GACAAGGC,0.095
10,ATAGGTCA,0.0648
11,AGGGGGTG,-0.192
12,CGCCTGAA,0.00827
13,ACAATGAC,0.116
14,GAATTTAC,0.243
15,CAGACTGA,-0.00466
16,CTATTTCC,0.0509
17,CACACCCC,-0.0498
18,ACATACGT,0.249
19,TATATACA,0.389
20,ACCCGGCG,-0.0988
21,AGCAGACT,0.169
22,ACCCAAAA,-0.0527
